Measured values from the supplement of paper PMC8728848.
The list shows a part of the results.

Legend:
Assay in all cases: glycan array binding signal (z-score within array); higher = stronger binding
Details in all cases: glycan notation: IUPAC condensed, linker removed
Fuc(a1-2)Gal = target: Fuc(a1-2)Gal
How it was run: (§1)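 Glycan array data were curated from 3228 arrays in the Consortium for Functional Glycomics database and kept only where the protein sequence was available. Glycan names were converted to IUPAC-condensed notation, and columns mapping to the same glycan were averaged. The binding signal is a within-array Z-score, averaged across arrays of the same protein sequence at different concentrations or buffers and across linkers. Negative Z-scores can be read as non-binding.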

Fuc(a1-2)Gal(b1-3)GalNAc = target: Fuc(a1-2)Gal(b1-3)GalNAc
How it was run: as §1

[1] = target: Fuc(a1-2)Gal(b1-3)GalNAc(a1-3)[Fuc(a1-2)]Gal(b1-4)Glc
How it was run: as §1

[2] = target: Fuc(a1-2)Gal(b1-3)GalNAc(a1-3)[Fuc(a1-2)]Gal(b1-4)GlcNAc
How it was run: as §1

[3] = target: Fuc(a1-2)Gal(b1-3)GalNAc(b1-3)Gal
How it was run: as §1

[4] = target: Fuc(a1-2)Gal(b1-3)GalNAc(b1-3)Gal(a1-4)Gal(b1-4)Glc
How it was run: as §1

[5] = target: Fuc(a1-2)Gal(b1-3)GalNAc(b1-4)[Neu5Ac(a2-3)]Gal(b1-4)Glc
How it was run: as §1

Fuc(a1-2)Gal(b1-3)GlcNAc = target: Fuc(a1-2)Gal(b1-3)GlcNAc
How it was run: as §1

[6] = target: Fuc(a1-2)Gal(b1-3)GlcNAc(b1-2)Man(a1-3)[Fuc(a1-2)Gal(b1-3)GlcNAc(b1-2)Man(a1-6)]Man(b1-4)GlcNAc(b1-4)GlcNAc
How it was run: as §1

[7] = target: Fuc(a1-2)Gal(b1-3)GlcNAc(b1-2)Man(a1-3)[Fuc(a1-2)Gal(b1-3)GlcNAc(b1-2)Man(a1-6)]Man(b1-4)GlcNAc(b1-4)[Fuc(a1-6)]GlcNAc
How it was run: as §1

[8] = target: Fuc(a1-2)Gal(b1-3)GlcNAc(b1-3)Gal(b1-4)Glc
How it was run: as §1

[9] = target: Fuc(a1-2)Gal(b1-3)GlcNAc(b1-3)GalNAc
How it was run: as §1

[10] = target: Fuc(a1-2)Gal(b1-3)GlcNAc(b1-3)[Fuc(a1-2)Gal(b1-3)GlcNAc(b1-6)]GalNAc
How it was run: as §1

[11] = target: Fuc(a1-2)Gal(b1-3)GlcNAc(b1-3)[Gal(b1-4)GlcNAc(b1-6)]Gal(b1-4)Glc
How it was run: as §1

[12] = target: Fuc(a1-2)Gal(b1-3)GlcNAc(b1-3)[Neu5Ac(a2-6)Gal(b1-4)GlcNAc(b1-6)]Gal(b1-4)Glc
How it was run: as §1

[13] = target: Fuc(a1-2)Gal(b1-3)GlcNAc6S
How it was run: as §1

[14] = target: Fuc(a1-2)Gal(b1-3)[Fuc(a1-4)]GlcNAc
How it was run: as §1

[15] = target: Fuc(a1-2)Gal(b1-3)[Fuc(a1-4)]GlcNAc(b1-2)Man(a1-3)[Fuc(a1-2)Gal(b1-3)[Fuc(a1-4)]GlcNAc(b1-2)Man(a1-3)]Man(b1-4)GlcNAc(b1-4)GlcNAc
How it was run: as §1

[16] = target: Fuc(a1-2)Gal(b1-3)[Fuc(a1-4)]GlcNAc(b1-2)Man(a1-3)[Fuc(a1-2)Gal(b1-3)[Fuc(a1-4)]GlcNAc(b1-2)Man(a1-6)]Man(b1-4)GlcNAc(b1-4)[Fuc(a1-6)]GlcNAc(b1-4)[Fuc(a1-6)]GlcNAc
How it was run: as §1

[17] = target: Fuc(a1-2)Gal(b1-3)[Fuc(a1-4)]GlcNAc(b1-3)[Fuc(a1-3)[Gal(b1-4)]GlcNAc(b1-6)]Gal(b1-4)Glc
How it was run: as §1

[18] = target: Fuc(a1-2)Gal(b1-3)[Fuc(a1-4)]GlcNAc(b1-3)[Gal(b1-4)GlcNAc(b1-6)]Gal(b1-4)Glc
How it was run: as §1

[19] = target: Fuc(a1-2)Gal(b1-4)Fuc(a1-3)]GlcNAc(b1-2)Man(a1-3)[Fuc(a1-2)Gal(b1-4)[Fuc(a1-3)]GlcNAc(b1-2)Man(a1-6)]Man(b1-4)GlcNAc(b1-4)GlcNAc
How it was run: as §1

Fuc(a1-2)Gal(b1-4)Glc = target: Fuc(a1-2)Gal(b1-4)Glc
How it was run: as §1

Fuc(a1-2)Gal(b1-4)Glc6S = target: Fuc(a1-2)Gal(b1-4)Glc6S
How it was run: as §1

Fuc(a1-2)Gal(b1-4)GlcNAc = target: Fuc(a1-2)Gal(b1-4)GlcNAc
How it was run: as §1

[20] = target: Fuc(a1-2)Gal(b1-4)GlcNAc(b1-2)Man
How it was run: as §1

[21] = target: Fuc(a1-2)Gal(b1-4)GlcNAc(b1-2)Man(a1-3)[Fuc(a1-2)Gal(b1-4)GlcNAc(b1-2)Man(a1-6)]Man(b1-4)GlcNAc(b1-4)GlcNAc
How it was run: as §1

[22] = target: Fuc(a1-2)Gal(b1-4)GlcNAc(b1-2)Man(a1-3)[Fuc(a1-2)Gal(b1-4)GlcNAc(b1-2)Man(a1-6)]Man(b1-4)GlcNAc(b1-4)[Fuc(a1-6)]GlcNAc
How it was run: as §1

[23] = target: Fuc(a1-2)Gal(b1-4)GlcNAc(b1-2)[Fuc(a1-2)Gal(b1-4)GlcNAc(b1-4)]Man(a1-3)[Fuc(a1-2)Gal(b1-4)GlcNAc(b1-2)Man(a1-6)]Man(b1-4)GlcNAc(b1-4)GlcNAc
How it was run: as §1

[24] = target: Fuc(a1-2)Gal(b1-4)GlcNAc(b1-3)Gal(b1-4)GlcNAc
How it was run: as §1

[25] = target: Fuc(a1-2)Gal(b1-4)GlcNAc(b1-3)Gal(b1-4)GlcNAc(b1-2)Man(a1-3)[Fuc(a1-2)Gal(b1-4)GlcNAc(b1-3)Gal(b1-4)GlcNAc(b1-2)Man(a1-6)]Man(b1-4)GlcNAc(b1-4)GlcNAc
How it was run: as §1

[26] = target: Fuc(a1-2)Gal(b1-4)GlcNAc(b1-3)Gal(b1-4)GlcNAc(b1-3)Gal(b1-4)GlcNAc
How it was run: as §1

[27] = target: Fuc(a1-2)Gal(b1-4)GlcNAc(b1-3)GalNAc
How it was run: as §1

[28] = target: Fuc(a1-2)Gal(b1-4)GlcNAc(b1-3)[Fuc(a1-2)Gal(b1-4)GlcNAc(b1-6)]GalNAc
How it was run: as §1

[29] = target: Fuc(a1-2)Gal(b1-4)GlcNAc(b1-3)[Fuc(a1-3)[Gal(b1-4)]GlcNAc(b1-6)]Gal(b1-4)Glc
How it was run: as §1

[30] = target: Fuc(a1-2)Gal(b1-4)GlcNAc(b1-6)GalNAc
How it was run: as §1

[31] = target: Fuc(a1-2)Gal(b1-4)GlcNAc6S
How it was run: as §1

B1: Als3-N (Candida albicans) (protein)
chain: KTITGVFNSFNSLTWSNAATYNYKGPGTPTWNAVLGWSLDGTSASPGDTFTLNMPCVFKFTTSQTSVDLTAHGVKYATCQFQAGEEFMTFSTLTCTVSNTLTPSIKALGTVTLPLAFNVGGTGSSVDLEDSKCFTAGTNTVTFNDGGKKISINVDFERSNVDPKGYLTDSRVIPSLNKVSTLFVAPQCANGYTSGTMGFANTYGDVQIDCSNIHVGITKGLNDWNYPVSSESFSYTKTCSSNGIFITYKNVPAGYRPFVDAYISATDVNSYTLSYANEYTCAGGYWQRAPFTLRWTGYRNSDAGSNGIVIVATTRTVTDSTTAVTTLPFDPNRDKTKTIEILKPIPTTTITTSYVGVTTSYLTKTAPIGETATVIVDIPYHTTTTVTSKWTGTITSTTTHTNPTDSIDTVIVQVP
**Q.** Which results are given for B1?
**A.** glycan array binding signal (z-score) (Fuc(a1-2)Gal): -0.276; glycan array binding signal (z-score) (Fuc(a1-2)Gal(b1-3)GalNAc): 0.036; glycan array binding signal (z-score) [1]: -0.121; glycan array binding signal (z-score) [2]: -0.225; glycan array binding signal (z-score) [3]: 0.208; glycan array binding signal (z-score) [4]: -0.218; glycan array binding signal (z-score) [5]: -0.075; glycan array binding signal (z-score) (Fuc(a1-2)Gal(b1-3)GlcNAc): -0.288; glycan array binding signal (z-score) [6]: -0.253; glycan array binding signal (z-score) [7]: -0.101; glycan array binding signal (z-score) [8]: -0.254; glycan array binding signal (z-score) [9]: 0.228; glycan array binding signal (z-score) [10]: 0.101; glycan array binding signal (z-score) [11]: -0.291; glycan array binding signal (z-score) [12]: -0.154; glycan array binding signal (z-score) [13]: -0.191; glycan array binding signal (z-score) [14]: -0.271; glycan array binding signal (z-score) [15]: 0.07; glycan array binding signal (z-score) [16]: 0.599; glycan array binding signal (z-score) [17]: -0.221; glycan array binding signal (z-score) [18]: -0.259; glycan array binding signal (z-score) [19]: 2.75; glycan array binding signal (z-score) (Fuc(a1-2)Gal(b1-4)Glc): -0.278; glycan array binding signal (z-score) (Fuc(a1-2)Gal(b1-4)Glc6S): -0.025; glycan array binding signal (z-score) (Fuc(a1-2)Gal(b1-4)GlcNAc): -0.282; glycan array binding signal (z-score) [20]: -0.257; glycan array binding signal (z-score) [21]: -0.243; glycan array binding signal (z-score) [22]: -0.083; glycan array binding signal (z-score) [23]: -0.209; glycan array binding signal (z-score) [24]: -0.181; glycan array binding signal (z-score) [25]: 0.42; glycan array binding signal (z-score) [26]: -0.233; glycan array binding signal (z-score) [27]: 1.65; glycan array binding signal (z-score) [28]: -0.148; glycan array binding signal (z-score) [29]: -0.14; glycan array binding signal (z-score) [30]: 0.041; glycan array binding signal (z-score) [31]: -0.257
